Assay results: the supplement of paper PMC11417369
This is one part of the list.

These sequences were tested on PfSIP2 AP2 domain 1 (GST-tagged) (assay: gcPBM binding intensity (ln(normalized median fluorescence intensity)); higher = stronger DNA binding).
Method in brief: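 The highest Masliner-normalised natural-log median intensity across replicate spots of either probe orientation is reported as binding intensity. GST-tagged P. falciparum DNA-binding domains expressed in E. coli were applied for 1 h to an Agilent 4 × 180k array of primer-extended double-stranded 36-bp intergenic genomic probes plus negative controls, and bound protein was detected with Alexa488 anti-GST antibody and scanned at 488 nm.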

With “AAAGATATAAATTACTGTACTAATGAAATTGGTAAA [XGTACX_site3582]” as the sequence, how does the “gcPBM binding intensity (ln)” value read?
Its value is 6.61.

“AATCCTTAAAATTAACGTACGAAATGAATTTATTAA [XGTACX_site956]” was tested. Which “gcPBM binding intensity (ln)” value did it give?
Its value is 6.86.

How did the “gcPBM binding intensity (ln)” value turn out when “TGGAGGTCATTACACAGTACCCAGGAAATCTACGGA [XGTACX_site2004]” was run?
Its value is 6.64.

“AAACCGTGGGAGCACACACACACACCCACCCATATA [CACACA_site332]” was tested. Which “gcPBM binding intensity (ln)” value did it give?
The value was 6.91.

With “ACAAAACAAAACAAAAGTACACAAAATAAATAAGAT [XGTACX_site6497]” as the sequence, how does the “gcPBM binding intensity (ln)” value read?
The value was 7.32.

For “ATAATAACAAAATATTAACACACATAACATATTATA [CACACA_site8906]”, which “gcPBM binding intensity (ln)” value is on record?
Its value is 6.84.

For “TTCTGTCAATATGCTTGTACGAAATATTTCGTAATT [XGTACX_site3182]”, which “gcPBM binding intensity (ln)” value is on record?
The value was 7.16.

For “ATAAATAAATACTAGGCACACACACCGATATATATA [CACACA_site8649]”, which “gcPBM binding intensity (ln)” value is on record?
Its value is 7.18.

With “AAAATAAACCCAGACACACTCATTAAAAAATATCAT [CACACA_site5903]” as the sequence, how does the “gcPBM binding intensity (ln)” value read?
Its value is 6.8.

How did the “gcPBM binding intensity (ln)” value turn out when “TATTAATCCTTTTGCTTGGAAACATTCAAAAGGAAG [CACACA_negctrl_site1129]” was run?
The value was 6.86.

For “ATATATATAAAATATGGTACAGAAAAAGTCTTGTTT [XGTACX_site8868]”, which “gcPBM binding intensity (ln)” value is on record?
The value was 7.45.

With “TAGAATTAAGTTATTGCACACAGGAAAAGTTTCATA [CACACA_site1634]” as the sequence, how does the “gcPBM binding intensity (ln)” value read?
Its value is 6.83.

With “AATCCTTACGAACACACACACACGAATAAATAAAAA [CACACA_site6363]” as the sequence, how does the “gcPBM binding intensity (ln)” value read?
The value was 7.44.

“ATAAATAAGAAAAATTGTACAATATTTTTTAGGATA [XGTACX_site3163]” was tested. Which “gcPBM binding intensity (ln)” value did it give?
Its value is 6.96.

With “TCTTCGAAACTATCACTCTCACAATTCATTTATTTT [TGCATGCA_negctrl_site156]” as the sequence, how does the “gcPBM binding intensity (ln)” value read?
Its value is 6.94.

How did the “gcPBM binding intensity (ln)” value turn out when “CTGTGTTTTGGTTGTACACACGCTACATTATATATT [CACACA_site5487]” was run?
The value was 7.94.

“TATTTTATCATTTTTTTTATGTCTTTATTTCACTTG [CACACA_negctrl_site1398]” was tested. Which “gcPBM binding intensity (ln)” value did it give?
The value was 6.87.

“ATATACATTAAATGAACACACATAAATAAATTACAT [CACACA_site2852]” was tested. Which “gcPBM binding intensity (ln)” value did it give?
The value was 6.95.

How did the “gcPBM binding intensity (ln)” value turn out when “TTTTAATTTTGTTGTTGTACAAATAACATGTGAGGG [XGTACX_site4401]” was run?
The value was 7.92.

With “ATATATATATATATATCATTTATTTAAAAATTTTTT [TGCATGCA_negctrl_site228]” as the sequence, how does the “gcPBM binding intensity (ln)” value read?
The value was 9.4.

For “AACACATAAAAAAGGTGTACCATAAAATATACATAC [XGTACX_site4478]”, which “gcPBM binding intensity (ln)” value is on record?
The value was 7.01.

Which “gcPBM binding intensity (ln)” value does the source give for “ATATACACATTAATAACACACAATATGATAACAAAT [CACACA_site7670]” here?
Its value is 7.21.

With “GTGCATAAATCATACACACACACATATATAAATATA [CACACA_site7188]” as the sequence, how does the “gcPBM binding intensity (ln)” value read?
The value was 8.61.

How did the “gcPBM binding intensity (ln)” value turn out when “GTGTTTTTATGTGAATGTACATATTTACTATCACAC [XGTACX_site2388]” was run?
Its value is 7.37.

“AAAGTTTTTATAAAAAAAAAAATAAATACCATATAT [XGTACX_negctrl_site113]” was tested. Which “gcPBM binding intensity (ln)” value did it give?
Its value is 7.

Which “gcPBM binding intensity (ln)” value does the source give for “AAAAGTTTAAGTTTTCGAAAATTTACCAAAAAAAAA [CACACA_negctrl_site1644]” here?
The value was 6.84.

With “TTACTTTAACCTTCTCGTACTTATTTACTTTATTCT [XGTACX_site7801]” as the sequence, how does the “gcPBM binding intensity (ln)” value read?
The value was 7.36.

With “TTTCAAAGGAAATGGTGTACACAATTTTTCCTTTTT [XGTACX_site2340]” as the sequence, how does the “gcPBM binding intensity (ln)” value read?
The value was 7.09.

With “TTTTATTATTCTTCTCTCTTATATATATATATATAT [CACACA_negctrl_site646]” as the sequence, how does the “gcPBM binding intensity (ln)” value read?
The value was 9.44.

For “ATAACATAGGCAATCACACATATCATTAAGGTGTCA [CACACA_site5233]”, which “gcPBM binding intensity (ln)” value is on record?
The value was 6.85.

“TACTTTTATATGAATACACACAGGAATATATATATG [CACACA_site3568]” was tested. Which “gcPBM binding intensity (ln)” value did it give?
The value was 7.06.

How did the “gcPBM binding intensity (ln)” value turn out when “ACTGTGGTATAAAGTTGTACATGTTTTTATATATTT [XGTACX_site5257]” was run?
Its value is 7.33.

For GTCTAAAAATAAAAAGTGCATTTGTTTAATATTTTG, which “gcPBM binding intensity (ln)” value is on record?
Its value is 9.52.

Which “gcPBM binding intensity (ln)” value does the source give for “TTAATTTTTTTTTTTTGTACTCATATGTAATTCATC [XGTACX_site3071]” here?
The value was 7.09.

For “TGATTGTATTAAAATGCACACATATCAAGAGGAATT [CACACA_site7985]”, which “gcPBM binding intensity (ln)” value is on record?
The value was 7.61.

For “TATTATTATTATTATTTTAAAAGAAATAAAAATATG [XGTACX_negctrl_site119]”, which “gcPBM binding intensity (ln)” value is on record?
The value was 7.09.

How did the “gcPBM binding intensity (ln)” value turn out when “ATTAAAACAAATATGTGTACATAAAAATATATATAT [XGTACX_site8394]” was run?
The value was 8.15.

With “TCGATTAAAACACAAAAATATAAATACATTGATAAA [TGCATGCA_negctrl_site523]” as the sequence, how does the “gcPBM binding intensity (ln)” value read?
Its value is 6.64.

How did the “gcPBM binding intensity (ln)” value turn out when “TTAATAAATATGTTTACACACGAAAATACATTTTTT [CACACA_site8245]” was run?
Its value is 6.79.

How did the “gcPBM binding intensity (ln)” value turn out when “TTAAAAGTTATGGATACACACATATAAATATAGATT [CACACA_site7175]” was run?
The value was 6.77.

“ATTTTAATTTTTTAAGTATTATATGAATATTTATTA [TGCATGCA_negctrl_site142]” was tested. Which “gcPBM binding intensity (ln)” value did it give?
Its value is 6.68.

With “TAATTTTCATAATTTTGTACTTAACGTTTTACCTTG [XGTACX_site8048]” as the sequence, how does the “gcPBM binding intensity (ln)” value read?
The value was 6.76.

Which “gcPBM binding intensity (ln)” value does the source give for “ACATATATATATATATATATATATATATATTCTTAA [CACACA_negctrl_site930]” here?
The value was 7.96.

How did the “gcPBM binding intensity (ln)” value turn out when “CACACGCACGAACACACACACACACGCGCACATATA [CACACA_site6304]” was run?
Its value is 7.68.
